Reference: paper PMC9911399, “Two distinct binding modes provide the RNA-binding protein RbFox with extraordinary sequence specificity”
Where a chain is given by its changes, count along the chain named. This is one part of the list.

T1: RBFOX1 RRM (Homo sapiens, UniProt Q9NWB1 109-208)
T1 sequence: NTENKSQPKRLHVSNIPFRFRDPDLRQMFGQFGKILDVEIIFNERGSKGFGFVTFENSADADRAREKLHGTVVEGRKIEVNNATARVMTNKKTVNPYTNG

B1: UAUGAUG (DNA:RNA)
RNA: GGGAGACCGGAAUUCAGAUUGUCCUAUGAUGUUAAAUCCCGUCGUAGCCACCA
DNA 1: CAATCTGAATTCCGGTCTCCC
DNA 2: TGGTGGCTACGACGGGATT
B2: GUAUACG (DNA:RNA)
RNA: B1 RNA with U25G, A26U, U27A, G28U, U30C
DNA 1: CAATCTGAATTCCGGTCTCCC
DNA 2: TGGTGGCTACGACGGGATT
B3: CAUAUUA (DNA:RNA)
RNA: B1 RNA with U25C, G28A, A29U, G31A
DNA 1: CAATCTGAATTCCGGTCTCCC
DNA 2: TGGTGGCTACGACGGGATT
B4: GGACACC (DNA:RNA)
RNA: B1 RNA with U25G, A26G, U27A, G28C, U30C, G31C
DNA 1: CAATCTGAATTCCGGTCTCCC
DNA 2: TGGTGGCTACGACGGGATT
B5: GAGAAAU (DNA:RNA)
RNA: B1 RNA with U25G, U27G, G28A, U30A, G31U
DNA 1: CAATCTGAATTCCGGTCTCCC
DNA 2: TGGTGGCTACGACGGGATT
B6: UACACUA (DNA:RNA)
RNA: B1 RNA with U27C, G28A, A29C, G31A
DNA 1: CAATCTGAATTCCGGTCTCCC
DNA 2: TGGTGGCTACGACGGGATT
B7: CAACGGA (DNA:RNA)
RNA: B1 RNA with U25C, U27A, G28C, A29G, U30G, G31A
DNA 1: CAATCTGAATTCCGGTCTCCC
DNA 2: TGGTGGCTACGACGGGATT
B8: CUAUCUA (DNA:RNA)
RNA: B1 RNA with U25C, A26U, U27A, G28U, A29C, G31A
DNA 1: CAATCTGAATTCCGGTCTCCC
DNA 2: TGGTGGCTACGACGGGATT
B9: UGGUCAA (DNA:RNA)
RNA: B1 RNA with A26G, U27G, G28U, A29C, U30A, G31A
DNA 1: CAATCTGAATTCCGGTCTCCC
DNA 2: TGGTGGCTACGACGGGATT
B10: AUACUAC (DNA:RNA)
RNA: GGGAGACCGGAAUUCAGAUUGUCCAUACUACUUAAAUCCCGUCGUAGCCACCA
DNA 1: CAATCTGAATTCCGGTCTCCC
DNA 2: TGGTGGCTACGACGGGATT
B11: CAGGACG (DNA:RNA)
RNA: B1 RNA with U25C, U27G, U30C
DNA 1: CAATCTGAATTCCGGTCTCCC
DNA 2: TGGTGGCTACGACGGGATT
B12: AUACAAG (DNA:RNA)
RNA: B10 RNA with U29A, C31G
DNA 1: CAATCTGAATTCCGGTCTCCC
DNA 2: TGGTGGCTACGACGGGATT
B13: UGGAGAG (DNA:RNA)
RNA: B1 RNA with A26G, U27G, G28A, A29G, U30A
DNA 1: CAATCTGAATTCCGGTCTCCC
DNA 2: TGGTGGCTACGACGGGATT
B14: UCAAGCA (DNA:RNA)
RNA: B10 RNA with A25U, U26C, C28A, U29G, A30C, C31A
DNA 1: CAATCTGAATTCCGGTCTCCC
DNA 2: TGGTGGCTACGACGGGATT
B15: UUGGCGC (DNA:RNA)
RNA: B10 RNA with A25U, A27G, C28G, U29C, A30G
DNA 1: CAATCTGAATTCCGGTCTCCC
DNA 2: TGGTGGCTACGACGGGATT
B16: AGUCACU (DNA:RNA)
RNA: B10 RNA with U26G, A27U, U29A, A30C, C31U
DNA 1: CAATCTGAATTCCGGTCTCCC
DNA 2: TGGTGGCTACGACGGGATT
B17: CUACAGC (DNA:RNA)
RNA: B10 RNA with A25C, U29A, A30G
DNA 1: CAATCTGAATTCCGGTCTCCC
DNA 2: TGGTGGCTACGACGGGATT
B18: CGUGGAG (DNA:RNA)
RNA: B1 RNA with U25C, A26G, A29G, U30A
DNA 1: CAATCTGAATTCCGGTCTCCC
DNA 2: TGGTGGCTACGACGGGATT
B19: GAGGAAC (DNA:RNA)
RNA: B1 RNA with U25G, U27G, U30A, G31C
DNA 1: CAATCTGAATTCCGGTCTCCC
DNA 2: TGGTGGCTACGACGGGATT
B20: UUACUUA (DNA:RNA)
RNA: B10 RNA with A25U, A30U, C31A
DNA 1: CAATCTGAATTCCGGTCTCCC
DNA 2: TGGTGGCTACGACGGGATT
B21: UCUGACA (DNA:RNA)
RNA: B1 RNA with A26C, U30C, G31A
DNA 1: CAATCTGAATTCCGGTCTCCC
DNA 2: TGGTGGCTACGACGGGATT
B22: GAAGGGG (DNA:RNA)
RNA: B1 RNA with U25G, U27A, A29G, U30G
DNA 1: CAATCTGAATTCCGGTCTCCC
DNA 2: TGGTGGCTACGACGGGATT
B23: AGUCGAU (DNA:RNA)
RNA: B10 RNA with U26G, A27U, U29G, C31U
DNA 1: CAATCTGAATTCCGGTCTCCC
DNA 2: TGGTGGCTACGACGGGATT
B24: AUGUUUA (DNA:RNA)
RNA: B10 RNA with A27G, C28U, A30U, C31A
DNA 1: CAATCTGAATTCCGGTCTCCC
DNA 2: TGGTGGCTACGACGGGATT
B25: GUUUGCU (DNA:RNA)
RNA: B10 RNA with A25G, A27U, C28U, U29G, A30C, C31U
DNA 1: CAATCTGAATTCCGGTCTCCC
DNA 2: TGGTGGCTACGACGGGATT
B26: AAGGGAU (DNA:RNA)
RNA: B10 RNA with U26A, A27G, C28G, U29G, C31U
DNA 1: CAATCTGAATTCCGGTCTCCC
DNA 2: TGGTGGCTACGACGGGATT
B27: AGCACAA (DNA:RNA)
RNA: B10 RNA with U26G, A27C, C28A, U29C, C31A
DNA 1: CAATCTGAATTCCGGTCTCCC
DNA 2: TGGTGGCTACGACGGGATT
B28: CCAGCAG (DNA:RNA)
RNA: B10 RNA with A25C, U26C, C28G, U29C, C31G
DNA 1: CAATCTGAATTCCGGTCTCCC
DNA 2: TGGTGGCTACGACGGGATT
B29: AAACCCU (DNA:RNA)
RNA: B10 RNA with U26A, U29C, A30C, C31U
DNA 1: CAATCTGAATTCCGGTCTCCC
DNA 2: TGGTGGCTACGACGGGATT
B30: GCACAAC (DNA:RNA)
RNA: B10 RNA with A25G, U26C, U29A
DNA 1: CAATCTGAATTCCGGTCTCCC
DNA 2: TGGTGGCTACGACGGGATT
B31: UAAAAAU (DNA:RNA)
RNA: B1 RNA with U27A, G28A, U30A, G31U
DNA 1: CAATCTGAATTCCGGTCTCCC
DNA 2: TGGTGGCTACGACGGGATT

These binders were tested against T1, RBFOX1 RRM (assay: EMSA; HiTS-Eq, 1 nM pool, 10 min; buffer printed only for the single-RNA assays: 10 mM Tris pH 7.5, 150 mM NaCl, 3.4 mM EDTA, 0.001% NP-40, 30 C). Conditions: tags: His6 N-terminal (pET28a); label: 5' 32P.
Method in brief: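 These values rest on relative association constants, computed from read-count changes of each RNA species versus the control reaction and normalised to the cognate motif. Reads came from free RNA recovered by 8% native PAGE after purified RbFox RRM (wild type or mutant) at increasing concentrations was equilibrated for 10 min in 50 µL with 1 nM of a 5′-radiolabelled pool with 7 randomized nucleotides and DNA-annealed flanks.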

Compared with B1, B2 is lower in binding signal: 0.0226 KA relative to UGCAUGU for the first, 0.00681 KA relative to UGCAUGU for the second.

First: B3
Second: B4
The binding signal of the first is lower: 0.00187 KA relative to UGCAUGU for the first, 0.0121 KA relative to UGCAUGU for the second.

First: B5
Second: B6
The binding signal of the first is higher: 0.00334 KA relative to UGCAUGU for the first, 0.000718 KA relative to UGCAUGU for the second.

First: B7
Second: B8
The binding signal of the first is higher: 0.00758 KA relative to UGCAUGU for the first, 0.00338 KA relative to UGCAUGU for the second.

Compared with B9, B10 is lower in binding signal: 0.0123 KA relative to UGCAUGU for the first, 0.00359 KA relative to UGCAUGU for the second.

Compared with B11, B12 is lower in binding signal: 0.00691 KA relative to UGCAUGU for the first, 0.00244 KA relative to UGCAUGU for the second.

Compared with B13, B14 is lower in binding signal: 0.0249 KA relative to UGCAUGU for the first, 0.00846 KA relative to UGCAUGU for the second.

First: B15
Second: B16
The binding signal of the first is higher: 0.0249 KA relative to UGCAUGU for the first, 0.00284 KA relative to UGCAUGU for the second.

First: B17
Second: B18
The binding signal of the first is lower: 0.00157 KA relative to UGCAUGU for the first, 0.015 KA relative to UGCAUGU for the second.

First: B19
Second: B20
The binding signal of the first is higher: 0.0161 KA relative to UGCAUGU for the first, 0.00269 KA relative to UGCAUGU for the second.

First: B21
Second: B22
The binding signal of the first is lower: 0.00704 KA relative to UGCAUGU for the first, 0.00926 KA relative to UGCAUGU for the second.

First: B23
Second: B24
The binding signal of the first is higher: 0.0125 KA relative to UGCAUGU for the first, 0.00454 KA relative to UGCAUGU for the second.

First: B25
Second: B26
The binding signal of the first is higher: 0.0286 KA relative to UGCAUGU for the first, 0.00671 KA relative to UGCAUGU for the second.

First: B27
Second: B28
The binding signal of the first is lower: 0.00317 KA relative to UGCAUGU for the first, 0.00706 KA relative to UGCAUGU for the second.

Compared with B29, B30 is higher in binding signal: 0.000474 KA relative to UGCAUGU for the first, 0.00592 KA relative to UGCAUGU for the second.

With B31 the binding signal was 0.00149 KA relative to UGCAUGU.
